Assays:
[1] = biological target: mouse CD3 (Mus musculus, UniProt P04235+P22646); assay: Binding to mouse CD3 (statement only)
[2] = system: OVCAR-3/Luc; assay: OVCAR-3 model study 1 (xenogenic, NSG mice engrafted with human PBMCs); assay type: in vivo, mouse; settings: for Avg Radiance 6 days post-implantation (median ± SEM): baseline, before dosing started
Protocol: In further experiments, the in vivo efficacy of an anti-MUC16/anti-CD3 bispecific antibody was evaluated in xenogenic and syngeneic tumor models. For the first xenogenic model, NSG mice were injected intraperitoneally (IP) with OVCAR-3/Luc cells previously passaged in vivo (Day 0) eleven days after engraftment with human PBMCs. Mice were treated IP with 0.01, 0.1, or 0.5 mg/kg BSMUC16/CD3-001, or administered 0.5 mg/kg non-binding control or CD3-binding control on Days 6, 10, 13, 16, and 21. Tumor burden was assessed by BLI on Days 6, 14, and 20 post tumor implantation. […] For the second xenogenic model, NSG mice were injected with OVCAR-3/Luc cells previously passaged in vivo (Day 0) thirteen days after engraftment with human PBMCs and a second batch of PBMCs were transferred on Day 4. Mice were treated intravenously (IV) with 0.1, 0.5, 1, or 5 mg/kg BSMUC16/CD3-005 or administered 5 mg/kg non-binding control or CD3-binding control on Days 5, 8, 12, 15, 19 and 22. Tumor burden was assessed by BLI on Days 4, 11, 18 and 25. […] To examine efficacy in an immune-competent model, the murine CD3 gene was replaced with human CD3 and a portion of the mouse MUC16 gene was replaced with the human sequence. […] For the syngeneic tumor model, ID8-VEGF cell lines engineered to express the portion of human MUC16 were used. Mice were implanted with the ID8-VEGF/huMUC16 cells subcutaneously and treated with 100 μg of BSMUC16/CD3-001 either on day of implantation or ten days after implantation when tumors were established.
Implantation and measurement of xenograft tumors: Ascites cells from the OVCAR-3/Luc cell line, previously passaged in vivo, were administered IP into the NSG mice previously engrafted with human PBMCs. BLI was measured as a read-out for tumor growth several days after OVCAR-3/Luc implantation and at multiple times during study. After initial BLI measurement for cohorting, mice were divided into groups of 4-6 animals each and administered MUC16×CD3 bispecific or control antibodies twice per week throughout the study.
Calculation of xenograft tumor growth and inhibition: Bioluminescence imaging was used to measure tumor burden. Mice were injected IP with 150 mg/kg (as determined by body weights at the start of the experiment) of the luciferase substrate D-luciferin suspended in PBS. Ten minutes after dosing, BLI imaging of the mice was performed under isoflurane anesthesia using the Xenogen IVIS system. […] Regions of interest were drawn around each tumor mass and photon intensities were recorded as p/s/cm^2/sr. […] Statistical significance for the BLI results was determined using an unpaired nonparametric Mann-Whitney t-test. Fold changes were calculated by the formula: (Day20-Day6)/Day6 for study 1 and (Day25−Day4)/Day4 for study 2.

[3] = Pharmacokinetics in wild-type (WT) mice; assay type: in vivo, mouse; settings: single 0.4 mg/kg i.p.
[4] = system: mouse MUC16; assay: Binding to mouse MUC16 (statement only)
[5] = biological target: T1, soluble monomeric human MUC16 (hMUC16.mmh, last five SEA domains) (Homo sapiens, UniProt Q8WXI7); assay: Surface plasmon resonance (Biacore) binding to hMUC16 fragment at 25° C.
T1 construct: C-terminal tags (.mmh)
T1 sequence (Q8WXI7 with tags, fused parts or gaps): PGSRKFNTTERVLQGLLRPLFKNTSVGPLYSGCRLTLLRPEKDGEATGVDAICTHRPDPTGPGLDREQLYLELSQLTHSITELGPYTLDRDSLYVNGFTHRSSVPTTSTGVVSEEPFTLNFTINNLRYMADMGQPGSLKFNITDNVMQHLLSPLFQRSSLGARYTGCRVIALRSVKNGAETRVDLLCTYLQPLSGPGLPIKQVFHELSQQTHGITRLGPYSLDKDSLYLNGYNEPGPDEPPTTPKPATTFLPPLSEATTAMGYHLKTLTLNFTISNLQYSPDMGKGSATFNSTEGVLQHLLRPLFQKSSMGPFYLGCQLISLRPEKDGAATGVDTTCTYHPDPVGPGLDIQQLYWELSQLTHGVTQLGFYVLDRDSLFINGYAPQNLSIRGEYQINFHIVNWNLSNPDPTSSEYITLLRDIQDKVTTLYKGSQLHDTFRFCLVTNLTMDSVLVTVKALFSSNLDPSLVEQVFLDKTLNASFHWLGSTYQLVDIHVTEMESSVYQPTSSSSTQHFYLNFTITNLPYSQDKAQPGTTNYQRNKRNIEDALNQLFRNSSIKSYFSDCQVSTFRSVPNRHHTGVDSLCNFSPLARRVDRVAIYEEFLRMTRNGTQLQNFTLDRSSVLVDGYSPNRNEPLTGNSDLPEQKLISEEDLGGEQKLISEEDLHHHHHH

[6] = system: OVCAR-3/Luc; assay: OVCAR-3/Luc xenograft in PBMC-engrafted NSG mice, therapeutic treatment; assay type: in vivo; settings: 10 μg/mouse i.p. 7 d post tumor implantation
Excerpt: To assess the in vivo efficacy of the anti-MUC16/anti-CD3 bispecifics in human tumor xenograft studies, NOD scid gamma (NSG) mice (Jackson Laboratories, Bar Harbor, Me.) were pre-implanted with human peripheral blood mononuclear cells (PBMCs; ReachBio LLC., Seattle, Wash.) and then given ascites cells from the human ovarian cancer cell line OVCAR-3 (American Type Tissue Culture, Manassas, Va.) transduced with luciferase (OVCAR-3/Luc). OVCAR-3 cells endogenously express MUC-16.
Briefly, NSG mice were injected intraperitoneally (i.p.) with 5.0×10^6 human PBMCs. 8 d later, 1.5×10^6 ascites cells from the OVCAR-3/Luc cell line, previously passaged in vivo, were administered i.p. to the NSG mice engrafted with PBMCs. In the immediate treatment group, mice were treated i.p. on the day of OVCAR-3/Luc cell implantation with MUC16/CD3 Bispecific antibodies BSMUC16/CD3-001 or BSMUC16/CD3-005, or an isotype control, at a dose of 10 μg/mouse (N=5 mice/treatment group). In the therapeutic dose model, mice were treated i.p. 7 d post tumor implantation with the MUC16/CD3 Bispecific or control antibodies described above, at a dose of 10 μg/mouse (N=5/treatment group).
In all studies, tumor growth was monitored via bioluminescent imaging (BLI). […] Regions of interest were drawn around each cell mass and photon intensities were recorded as photons (p)/sec (s)/cm^2/steradian (sr). […]

[7] = Pharmacokinetics in CD3 humanized mice (CD3^hu/hu); assay type: in vivo, mouse
[8] = biological target: T2, PC3/MUC16 short (nub portion of MUC16, amino acids 13,810-14,507) (Homo sapiens, UniProt Q8WXI7); assay: IHC staining of FFPE cell pellets: PC3/MUC16 short; assay type: binding
T2 construct: expressed in transfected cells; host or cells: PC3/ATCC (parental prostate cancer line, MUC16-negative)
T2 sequence (Q8WXI7 13810-14507 limits assumed): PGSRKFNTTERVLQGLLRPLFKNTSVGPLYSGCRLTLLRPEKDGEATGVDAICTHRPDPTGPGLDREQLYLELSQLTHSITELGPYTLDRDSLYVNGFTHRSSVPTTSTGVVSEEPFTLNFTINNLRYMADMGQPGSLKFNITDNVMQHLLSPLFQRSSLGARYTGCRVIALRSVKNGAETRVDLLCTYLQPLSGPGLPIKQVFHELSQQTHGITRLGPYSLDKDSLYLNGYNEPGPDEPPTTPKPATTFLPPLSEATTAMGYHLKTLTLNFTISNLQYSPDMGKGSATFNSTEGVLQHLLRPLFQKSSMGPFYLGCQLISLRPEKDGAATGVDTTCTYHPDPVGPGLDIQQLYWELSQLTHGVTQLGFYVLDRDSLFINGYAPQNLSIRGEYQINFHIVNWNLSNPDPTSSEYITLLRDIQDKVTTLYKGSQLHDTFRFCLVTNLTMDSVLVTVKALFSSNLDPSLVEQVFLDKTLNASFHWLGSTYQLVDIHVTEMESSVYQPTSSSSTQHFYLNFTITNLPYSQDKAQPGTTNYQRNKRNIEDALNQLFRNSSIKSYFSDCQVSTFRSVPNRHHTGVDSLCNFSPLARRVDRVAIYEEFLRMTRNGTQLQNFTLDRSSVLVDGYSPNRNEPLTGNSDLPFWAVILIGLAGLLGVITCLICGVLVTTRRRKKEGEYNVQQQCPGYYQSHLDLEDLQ

[9] = biological target: T3, Cynomolgus T cells (CD3) (Macaca fascicularis, UniProt Q95LI5+Q95LI8); assay: FACS binding titration on cynomolgus T cells; settings: Table 7B experiment (66.6 nM to 0.001 nM)
T3 construct: endogenous in cells; host or cells: primary cynomolgus T cells
T3 sequence (Q95LI5 22-198): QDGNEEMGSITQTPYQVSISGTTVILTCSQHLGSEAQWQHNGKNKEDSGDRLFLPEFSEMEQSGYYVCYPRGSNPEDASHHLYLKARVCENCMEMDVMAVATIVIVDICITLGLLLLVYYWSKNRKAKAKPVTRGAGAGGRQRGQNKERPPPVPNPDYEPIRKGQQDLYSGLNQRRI
T3 sequence (Q95LI8 22-171): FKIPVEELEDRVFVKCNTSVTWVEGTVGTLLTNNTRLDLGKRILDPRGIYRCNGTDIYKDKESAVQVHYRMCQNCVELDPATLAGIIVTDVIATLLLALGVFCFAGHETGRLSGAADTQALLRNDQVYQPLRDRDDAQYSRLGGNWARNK
T3 sequence (Q95LI7 23-181 partner): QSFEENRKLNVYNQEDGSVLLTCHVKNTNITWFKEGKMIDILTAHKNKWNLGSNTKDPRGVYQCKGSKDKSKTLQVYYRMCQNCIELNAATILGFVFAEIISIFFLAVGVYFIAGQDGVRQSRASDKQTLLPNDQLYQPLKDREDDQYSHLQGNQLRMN
Excerpt: B. In separate experiments with analogous conditions to that described above, flow cytometric analysis (or FACS) was utilized to determine binding of select bispecific antibodies to Jurkat cells, PEO-1, OVCAR3-Luc and cynomolgus T cells. For the titration analysis, serial dilution of selected MUC16×CD3 bispecific antibodies, a first isotype control antibody (a human chimeric IgG4 antibody that binds an irrelevant human antigen with no cross-reactivity to human or cynomolgus CD3) and a second isotype control antibody (a human chimeric IgG4 antibody that binds an irrelevant human antigen with no cross-reactivity to human MUC16), ranging from 66.6 nM to 0.001 nM.
For FACS analysis, cells were gated by forward scatter height vs. forward scatter area for single events selection, followed by side and forward scatters. The EC50 for cell binding titration was determined using PRISM™ software (GraphPad Software, Inc., La Jolla, Calif.). Values were calculated using 4-parameter non-linear regression analysis. (Liu, J., et al. 2005, Biotechnol Letters 27:1821-1827).

[10] = Table 6, anti-MUC16/anti-CD3 bispecific antibodies
[11] = Table 5A, hybridoma antibodies (H1M, H2M, H3M)

mouse CD3, sequence (P22646 22-189): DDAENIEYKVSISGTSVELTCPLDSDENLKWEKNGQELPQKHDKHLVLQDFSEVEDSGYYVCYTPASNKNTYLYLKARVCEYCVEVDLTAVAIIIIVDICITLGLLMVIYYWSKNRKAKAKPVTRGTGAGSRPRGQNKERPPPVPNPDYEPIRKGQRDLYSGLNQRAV
mouse CD3, sequence (P04235 22-173): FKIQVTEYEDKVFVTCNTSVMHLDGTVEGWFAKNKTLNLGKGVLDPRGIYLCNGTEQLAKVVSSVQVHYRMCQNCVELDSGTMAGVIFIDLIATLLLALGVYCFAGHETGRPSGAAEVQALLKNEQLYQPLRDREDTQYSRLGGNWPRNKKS

B1: BSMUC16/CD3-001: anti-MUC16 x CD3 bispecific antibody, IgG1 Fc; H1H8767P arm, CD3-VH-G arm (SEQ ID NO: 1730), common light chain SEQ ID NO: 26 (antibody, V domains shown)
VH 1: QVQLVESGGGLVKPGGSLRLSCAASGFTFSNYYMSWVRQAPGKGLEWISYISGRGSTIFYADSVKGRITISRDNAKNSLFLQMNSLRAEDTAVYFCVKDRGGYSPYWGQGTLVTVSS
VH 2: EVQLVESGGGLVQPGRSLRLSCAASGFTFDDYSMHWVRQAPGKGLEWVSGISWNSGSKGYADSVKGRFTISRDNAKNSLYLQMNSLRAEDTALYYCAKYGSGYGKFYHYGLDVWGQGTTVTVSS
VL: [… about 100 residues …]PITFGQGTRLEIK
Binding to mouse CD3 [1]: Neither BSMUC16/CD3-001 or BSMUC16/CD3-005 bind | Avg Radiance 20 days post-implantation (median ± SEM) ([2]; 0.01 mg/kg IP on Days 6, 10, 13, 16 and 21): 6.51e+06 ± 1.60e+06 p/s/cm2^2/sr | Avg Radiance 6 days post-implantation (median ± SEM) ([2]; group 0.01 mg/kg IP): 8.77e+05 ± 7.91e+04 p/s/cm2^2/sr | Avg Radiance 6 days post-implantation (median ± SEM) ([2]; group 0.1 mg/kg IP): 6.31e+05 ± 1.10e+05 p/s/cm2^2/sr | Avg Radiance 6 days post-implantation (median ± SEM) ([2]; group 0.5 mg/kg IP): 7.64e+05 ± 1.19e+05 p/s/cm2^2/sr | Cmax (Peak concentration) [3]: 6000 ± 400 ng/mL | Binding to mouse MUC16 [4]: Neither BSMUC16/CD3-001 or BSMUC16/CD3-005 bind | ka [5, 10]: 94800 M⁻¹ s⁻¹ | kd [5, 10]: 0.000586 s⁻¹ | Fold change in Avg Bioluminescent Radiance at Day 26 relative to Day 6 (mean ± SD) [6]: 2.0 ± 5.0 | Drug elimination curve ([7]; compared with BSMUC16/CD3-005 and isotype control): steeper drug elimination | Terminal antibody concentration ([7]; single 0.4 mg/kg i.p., serum): 0.03 µg/mL

B2: H2M7138N: hybridoma anti-MUC16 antibody, mIgG2; HCVR/LCVR SEQ ID NOs: 314/322 (antibody, V domains shown)
VH: QVQLVQSGAEVKKPGASVKVSCKASGYTFTSSDINWVRQATGQGLEWVGWMNPNYGYTGSARKFQDRVTMTRNTSLSTAYLELHSLRSEDTAVYYCARVTYCSSVTSCFRPFTYWGQGTLVTVSA
VL: [… about 100 residues …]PITFGQGTRLEIK
modifications: mIgG2
IHC binding to cells expressing the nub portion of MUC16 without the repeat regions (PC3/MUC16 short) [8]: positive binding | ka [5, 11]: 74100 M⁻¹ s⁻¹ | kd [5, 11]: 9.25e-05 s⁻¹

B3: BSMUC16/CD3-002: anti-MUC16 x CD3 bispecific antibody, IgG1 Fc; H1H8767P arm, CD3-VH-G5 arm (SEQ ID NO: 1762) (antibody, V domains shown)
VH 1: QVQLVESGGGLVKPGGSLRLSCAASGFTFSNYYMSWVRQAPGKGLEWISYISGRGSTIFYADSVKGRITISRDNAKNSLFLQMNSLRAEDTAVYFCVKDRGGYSPYWGQGTLVTVSS
VH 2: EVQLVESGGGLVQPGRSLRLSCAASGFTFDDYSMHWVRQAPGKGLEWVSGISWNSGSIGYADSVKGRFTISRDNAKNSLYLQMNSLRAEDTALYYCAKDGSGYGKFYYYGMDVWGQGTTVTVSS
VL: [… about 100 residues …]PITFGQGTRLEIK
EC50 [9]: > 1000 nM

Reference: patent US12570764B2, “Anti-MUC16 antibodies, antibody-drug conjugates, and bispecific antigen-binding molecules that bind MUC16 and CD3, and uses thereof” (Regeneron Pharmaceuticals, Inc., priority 2016, dated 2026)
